Test results reported in the supplement of paper PMC3334620.
In all, about 33,000 sequences were measured (“E-score (-0.5 to 0.5)”: median about -0.056, highest 2% from about 0.38 on). Some of the results follow.

Biological target: Stb4 (UniProt P50104)
Experiment: PBM E-score (8-mer binding enrichment) (E-score (-0.5 to 0.5)); higher = stronger / more preferred TF binding; most listed sequences are background and not binding sites
Settings: protein concentration: 200 nM; construct: GST-DNA-binding domain
Procedure: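 Universal 'all 10-mer' protein binding microarrays (Agilent AMADID 015681) probed with GST-tagged S. cerevisiae TFs (full-length or DBD) made by in vitro transcription/translation (PURExpress), about 100-200 nM. Bound TF was detected with fluorescent anti-GST. Each ungapped 8-mer (which stands for itself and its reverse complement) is scored by the PBM enrichment score (E-score), a modified Wilcoxon-Mann-Whitney statistic from -0.5 to +0.5, computed with the Universal PBM Analysis Suite. Scale: above 0.35 generally sequence-specific binding.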

Sequence | PBM E-score
AAAACGCC | 0.17
GAGGGCCA | -0.155
GCTATCTA | -0.0253
ACCTCTTC | -0.0573
CTGTTGCA | -0.00839
AGACTGGC | -0.17
GGCTTACC | 0.128
AAAACACT | 0.0517
CTTCACTC | -0.114
CGTTAAGC | -0.06
CGGTATAA | 0.251
AGGCCTAC | -0.176
CGGTTAAC | 0.221
ATATCCTG | -0.0665
AACAGATT | -0.0753
CGGGTTTC | 0.277
AAGCCGTG | 0.0738
CATCGTTA | -0.211
GACCTCAC | -0.0909
CATTGTGG | -0.0833
ATTCATTA | -0.125
TCCCAGCA | -0.0542
AAGCTGTC | -0.17
GAGTCTGC | -0.204
GAACGTAA | 0.0228

Sequence | PBM E-score
CCCTAACA | -0.0489
CAGCCTTC | -0.0839
ACGTTGGA | -0.218
AGTCCCGC | 0.15
GTACTGGA | -0.146
CCAAGTAC | -0.196
AACGAGAT | 0.0091
AGGCCCTC | -0.142
GATTCTCA | -0.13
AGAACGTC | -0.0846
AGGGACGC | -0.283
ACCTGCGC | 0.0374
AGGCATCG | -0.054
GAAGCGAA | -0.0908
ACATTCGT | -0.183
AGTATCGG | 0.296
TCACACGA | -0.0221
ATGATTAA | -0.0965
ACAGACTG | -0.188
GCCCTGAC | -0.311
TACACTGA | -0.0306
CACCTATA | -0.332
AGACGTCG | 0.0424
GACGGTAA | 0.126
ACAAAGGA | -0.0594

Sequence | PBM E-score
CTCCAATA | -0.0752
CAATTAGG | -0.0205
ATCGGCCG | 0.305
AGAAAACA | -0.0314
CGGAAACC | 0.347
ACAAATGC | 0.0346
AAAGGACA | -0.0993
GTCATGGA | -0.153
TAGCCGCA | 0.194
GTAAAGAC | -0.0616
CCCTCAAA | -0.0851
GTGAGAAC | -0.163
CACTGAGC | -0.0964
AGGGATCA | -0.11
ATTAATTC | 0.154
AGCAACCC | 0.0511
AACGGGGT | -0.107
TACCACTA | -0.166
AAGAAACA | 0.0325
ACCAGTAT | 0.0978
GGGCACCC | 0.0879
CAGGACAG | -0.202
ATCAAATC | 0.00194
GAGGCCAA | 0.019
AATTGAGA | -0.0482

Sequence | PBM E-score
CCGATTAC | 0.3
AGGGCAGG | -0.0683
CGGGAGGA | 0.352
GATGGCGA | -0.0541
AGAATACA | 0.0522
AATATCGT | 0.00244
GTAGACCA | -0.156
CGTTTCAA | -0.0406
ATTGGATA | -0.121
TGCTAACA | -0.0419
ATCTTATG | -0.145
ACCTGGCA | -0.0904
AAATTTCA | -0.381
ACTGGGTA | -0.165
CGATCACA | 0.0837
GAGACATA | -0.0788
GCATTCAA | -0.0963
GCTGTTGA | -0.0368
CCCTAATA | -0.253
GTGTGCAA | -0.127
ACGATGAG | 0.00595
GAGACCAA | 0.0703
CTACAGCA | -0.0189
CAATGACA | -0.274
GATCTTCA | 0.112

Sequence | PBM E-score
ACTAAAAA | 0.0862
GCCTTTTA | -0.143
AATTAAGA | -0.146
CGTTCTAG | -0.096
CTAGACAG | -0.114
ACTCCCAA | -0.0831
CTCGAAAG | -0.0594
ACTAGTAC | -0.171
GCACGGCC | 0.0345
ATGGGACA | -0.0554
CATTAGAA | -0.0101
ACTTACTC | -0.0276
ACTATGAT | -0.0459
ACATTAGC | -0.116
CGCCTCGC | -0.126
CGCCCGTA | 0.114
ATTTATAG | -0.23
AATGATCG | 0.12
AGCTTGTC | 0.0309
ACCACGAG | -0.0955
CGGACGCA | 0.128
ATATTACG | 0.0999
CCACCCCA | -0.114
CATAAGTA | -0.0524
CAAACTGA | -0.093

Sequence | PBM E-score
AATGGTAA | 0.121
GAAATAAA | -0.0782
CGCCTGAG | -0.0667
ACACACCT | -0.0221
CGACCGCG | 0.142
GTATAGAA | -0.0177
CAAAGAAC | -0.0719
CCATCAGA | -0.177
ACCTCAAC | -0.129
CCCTCAAG | -0.15
AGGATCAC | -0.249
CTCGGTGA | 0.316
CTGACGTA | -0.0361
ACTGTATA | -0.0986
CTAGCGTC | -0.165
AGTGATCG | -0.148
ATGAACGG | 0.011
CGGTTCAG | 0.173
CAGAAATG | -0.245
GGGTGAGA | 0.0394
CACCACAG | -0.0617
CCCTGACC | 0.0155
ACCAAACA | -0.0484
CGACTCTA | -0.0284
CCTACAAG | -0.104

Sequence | PBM E-score
GAGAGATA | -0.0772
ATGATAGA | -0.0513
ACAGCCCC | -0.174
GCGCAGAC | -0.0787
CTCCCGAC | 0.33
AAGGCTTC | -0.0882
ACGCGATG | -0.107
CCTTTCAA | -0.112
CCAGAAGA | -0.291
CACCTGAA | -0.0897
CTGCTTTA | 0.0123
GGACAGTA | 0.0699
CTACCGGA | 0.279
TCGGTTCA | 0.321
CACCTATC | 0.00998
GCTCGACC | -0.083
CGGACTTC | 0.237
TAAAATAA | -0.0195
ACAGTAAT | -0.214
AAGTCGCG | -0.0401
AACGAGCG | -0.0273
AATCTGGC | -0.066
